Reference: PubChem BioAssay AID651820 (National Center for Advancing Translational Sciences (NCATS), 2012)
Among all 340,000 compounds or so, about 12,000 (3.5%) were called active. Inconclusive means that the source gave no clear call. Such entries were picked first, then a sample of the others. Calls follow the shape of the dose curve; as a rule, active = well fitted inhibition curve with a large enough effect; inconclusive = small, poorly fitted or top-dose-only effect, or another doubt; inactive = no such curve, though single readings can be large or run the other way. Potencies of inconclusive entries are left out as doubtful fits.

Experiment: qHTS Assay for Inhibitors of Hepatitis C Virus (HCV)
Settings: Huh7.5.1 HCVcc-Cre (HCVcc is cell-culture hepatitis C virus) infection, luciferase reporter, 44 h; series mostly up to 41.8 µM
Method in brief: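 Seed cells (1,000/well) for 4 h; treat with compound and infect with HCVcc-Cre, moi about 0.5. Incubate 44 h, then detect luciferase activity.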
Potency is read from the fitted curve at half-maximal effect; tags tell the direction and shape of the fitted curve.

SMILES	Potency
CCOC(=O)c1cnc2c(C(F)(F)F)cccc2c1NCCCN1CCOCC1	inconclusive [inhibitor, single point]
O=C(/C=C/c1ccccc1)Nc1ncn[nH]1	inconclusive [inhibitor, single point]
COc1ccc(CCN(Cc2cc3cc(C)cc(C)c3nc2Cl)C(=O)C2CC2)cc1	inconclusive [inhibitor, single point]
CC1=NN(Cc2ccccc2)C(=O)C1C(c1ccccc1)C(C#N)C#N (stereo not given)	inactive
CCN(CC)c1ccc(/C=N/c2sc3c(c2C#N)C2CCN3CC2)c(O)c1	active: 4.47 µM
Cc1cc(=O)n2[nH]c(-c3ccccc3Cl)cc2n1	inconclusive [inhibitor, single point]
COc1ccc(Oc2ccc(N/C=C/C(=O)C(C)(C)C)cc2)cc1	inconclusive [inhibitor, partial curve]
CCN(CC)C(=O)CSc1nnc(-c2cc(-c3ccc(Cl)cc3)nc3ccccc23)o1	inactive
CN1CCN(C(=O)c2ccc(CNS(=O)(=O)c3cccc(Cl)c3)cc2)CC1	inactive
COc1cc(NC(=NS(=O)(=O)c2ccccc2)c2ccccc2)ncn1	inactive
Nc1ccc(C(=O)NN2C(=O)[C@H](Cl)C2c2ccc(Cl)cc2)cc1 (stereo not given in full)	active: 10 µM
COc1ccc(CCNC(=O)C(=O)NCCC2CCCCN2S(=O)(=O)c2cccs2)cc1 (stereo not given)	inconclusive [inhibitor, partial curve]
CCOC(=O)Nc1ccc2c(c1)N(C(=O)CCCl)c1ccccc1[S@]2=O	inconclusive [inhibitor, single point]
CCc1ccc2c(c1)c1nnc(NN)nc1n2C	inactive
CCOC(=O)Cc1c(C)nc2c(-c3ccc(Cl)cc3)c[nH]n2c1=O	inconclusive [inhibitor, single point]
COC(=O)c1cc2c(-c3ccccc3)cc3ccccn3c-2c1C(=O)OC	active: 1.78 µM
Cc1nc(CNC(=O)c2cc(COc3c(F)cccc3F)on2)cs1	inactive
O=C(/C=C/c1cccc([N+](=O)[O-])c1)n1cnc2ccccc21	inconclusive [inhibitor, single point]
CCCOc1ccc(/C=N/Nc2ccc(C(=O)O)cc2)c(OCCC)c1	inactive
Cc1ccc(S(=O)(=O)N[C@H](C(=O)OCC(=O)NC(=O)c2cccn2C)C(C)C)cc1	inconclusive [inhibitor, single point]
CCN(CC(=O)Nc1ccc(NC(C)=O)cc1)C(=O)CCCOc1cccc(C)c1	inconclusive [inhibitor, single point]
C/C(=N\NC(=O)c1ccccc1F)c1cccc(NC(=O)c2ccc(C)cc2)c1	inconclusive [inhibitor, partial curve]
COc1ccc2c(c1)c(CC(=O)OCC(N)=O)c(C)n2C(=O)c1ccc(Cl)cc1	inconclusive [inhibitor, single point]
CC1CCCC(C)N1CCCNC(=O)c1ccc2nc(N3CCCCC3)sc2c1 (stereo not given)	inactive

SMILES	Potency
c1ccc(CCSc2ncnc3nc[nH]c23)cc1	active: 12.6 µM
Cc1cc(C)n(-c2nc(NCCN(C)C)c3c4c(sc3n2)CCCC4)n1	inconclusive [inhibitor, single point]
Cc1cc(C)cc(NC(=S)Nc2cccc3ccccc23)c1	inconclusive [inhibitor, single point]
Cc1ccc(NC(=O)c2c(C)nn(-c3ccccc3)c2Cl)cc1	inactive
COC(=O)c1ccc(N2CCN(S(=O)(=O)c3ccc4ccccc4c3)CC2)c([N+](=O)[O-])c1	inconclusive [inhibitor, single point]
O=C(Nc1ccccc1)N1CCCC(c2nc(-c3cccs3)no2)C1 (stereo not given)	inconclusive [inhibitor, partial curve]
O=C(Nc1nc(-c2ccc(F)c(F)c2)cs1)C1=COCCO1	inactive
COc1ccc(C)cc1NC(=O)CSc1ccc(-c2sc(C)nc2C)nn1	active: 10 µM
CS(=O)(=O)c1cc([N+](=O)[O-])c(Sc2nc3ccccc3[nH]2)c([N+](=O)[O-])c1	inconclusive [inhibitor, single point]
CCCCCCCCCC(=O)NNC(=O)c1c(O)c2ccccc2n(CC)c1=O	inconclusive [inhibitor, full curve]
O=C(Cn1c(=O)n(CCc2c[nH]c3ccccc23)c(=O)c2cccnc21)Nc1ccccc1F	inconclusive [inhibitor, partial curve]
CSc1ccccc1NC(=O)CN1c2ccccc2CC1C (stereo not given)	inconclusive [inhibitor, partial curve]
O=c1c2c3nc4ccccc4nc3n(Cc3ccccc3)c2ncn1Cc1ccco1	inconclusive [inhibitor, partial curve]
CCN(CC(=O)Nc1cc(Cl)ccc1C)C(=O)c1oc2ccc(OC)cc2c1C	inconclusive [inhibitor, partial curve]
Cc1cccc(NC(=O)COC(=O)C(NC(=O)c2cccc(S(=O)(=O)N3CCOCC3)c2)C(C)C)c1 (stereo not given)	inconclusive [inhibitor, partial curve]
CCn1c(=N)n(CC(=O)c2cccc([N+](=O)[O-])c2)c2ccccc21	inconclusive [inhibitor, partial curve]
CC(C)CN(C(=O)CSc1nc(N)cc(N)n1)C1CCS(=O)(=O)C1 (stereo not given)	inactive
Cc1cc(=O)oc2cc(OCC(=O)N3CCN(Cc4ccc5c(c4)OCO5)CC3)ccc12	inconclusive [inhibitor, single point]
O=C(CCN1C(=O)C2CCCCC2C1=O)Nc1ccc(OC(F)F)cc1 (stereo not given)	inconclusive [inhibitor, single point]
CC1=Nc2cc([N+](=O)[O-])ccc2NC(C)(C)C1	inconclusive [inhibitor, single point]
C=C1CCc2c([nH]c3ccc(OCC(C)C)cc23)C1=O	inconclusive [inhibitor, single point]
COc1cc(OC)cc(C(=O)Nc2ccc(Cn3ccnc3)cc2)c1	inactive
COc1ccc(C2=Nn3c([n+](C)c4ccccc43)SC2)cc1	active: 2.24 µM
CC(C)(O)C1CC[C@@](C)([C@@H]2CC[C@]3(C)[C@H]2[C@H](O)CC2[C@@]4(C)CCC(O)C(C)(C)C4C(OC4OC(CO)C(O)C(O)C4O[C@@H]4OCC(O)C(O)C4O)C[C@]23C)O1 (stereo not given in full)	inactive

SMILES	Potency
CCN(CC)C(=O)[C@H]1CC(CC(=O)NCCCOC)C(=O)N2CCc3c([nH]c4ccccc34)[C@]12C (stereo not given in full)	inactive
O=C(N/C(=C/c1cn(-c2ccccc2)nc1-c1ccccc1)C(=O)N1CCOCC1)c1ccc(Cl)cc1Cl	inactive
O=C(NNC(=O)c1cc(Cl)ccc1O)c1ccc(NS(=O)(=O)c2cccs2)cc1	inactive
C=CCNc1nc(Cl)nc(NC2CCCCC2)n1	inconclusive [inhibitor, single point]
O=S(=O)(NCC(O)c1ccccc1)c1ccc(-c2ccccn2)s1 (stereo not given)	inconclusive [inhibitor, partial curve, poor fit]
COc1ccccc1NC(=O)COc1cccc2c1CCNC2=O	inconclusive [inhibitor, single point]
CCOCC(=O)Nc1ccc(S(=O)(=O)N2CCOCC2)cc1	inconclusive [inhibitor, single point]
O=C1C2CCCN2C(c2cccs2)N1c1ccc(Cl)cc1 (stereo not given)	inactive
COc1ccccc1OCC(=O)NC1CCCCCC1	inconclusive [inhibitor, single point]
Cc1c(CN2CCC(Oc3ccc(C(=O)N4CCCCC4)cc3)CC2)cnn1C	inactive
S=c1[nH]c(-c2ccccc2)cn1/N=C/c1ccccc1Br	inconclusive [inhibitor, single point]
Cc1cc(C(=O)N/N=C/c2ccc[nH]2)n[nH]1	active: 1.41 µM
C=CCn1cc(CN2CCC(C(=O)Nc3cccc(-c4cccc(Cl)c4)c3)CC2)c(C)n1	active: 5.01 µM
Cc1ccc(S(=O)(=O)c2nc(-c3cccs3)oc2NCc2cccnc2)cc1	inconclusive [inhibitor, single point]
CCOc1ccc(CCNC(=O)c2cccc(S(=O)(=O)N3CC(C)OC(C)C3)c2)cc1OCC (stereo not given)	inconclusive [inhibitor, full curve]
Cc1ccccc1-c1nnn(Cc2cccc(S(=O)(=O)N3CCOCC3)c2)n1	inconclusive [inhibitor, partial curve]
COCCn1c(SCC(=O)NC(=O)NC(C)(C)C)nc2ccccc21	inconclusive [inhibitor, partial curve]
N#C/C(=C\c1ccc([N+](=O)[O-])o1)c1nc2ccccc2[nH]1	inconclusive [inhibitor, single point]
COc1ccc(NC(=O)c2cnc(SC)nc2)cc1	inactive
CN(C)c1oc(-c2ccccc2Cl)nc1P(=O)(c1ccccc1)c1ccccc1	inconclusive [inhibitor, partial curve]
Cc1cc(C)c(C)c(S(=O)(=O)NCc2ccc(C(=O)N3CCOCC3)cc2)c1C	inactive
Cc1cccc(COc2ccccc2C(=O)OCC(=O)N(C)c2c(N)n(Cc3ccccc3)c(=O)[nH]c2=O)c1	inconclusive [inhibitor, full curve]
